# Measured values taken from PubChem BioAssay (NCATS).
# The inconclusive results got no clear call from the source; some entries with a clear call stand among them for comparison. For some assays here: Potencies of inconclusive entries are left out as doubtful fits. Active and inactive are the calls of the source. Calls come from the whole dose curve; as a rule, active = well fitted curve in the direction sought with a large enough effect; inconclusive = small, poorly fitted or top-dose-only effect, or another doubt; inactive = no such curve, though single readings can be large; an effect the other way counts as inactive or inconclusive.
# Assays:
# [1] = molecular target: DNA polymerase eta (Homo sapiens) (UniProt Q9Y253); test: qHTS for Inhibitors of Polymerase Eta: Confirmatory Assay for Cherry-picked Compounds (AID 720502); settings: Pol eta primer extension, TAMRA/BHQ fluorescence, 10 min; note: potency is the fitted concentration of half-maximal effect
# Method in brief: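 Readout: TAMRA dequenching, ex 525/em 598 nm, read at 0 and 10 min. Enzyme: 10 nM human Pol eta, preincubated with compound 15 min RT. Substrate: 50 nM final annealed primer/reporter/template duplex.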
# [2] = molecular target: RecQ-like DNA helicase BLM (Homo sapiens) (UniProt P54132); test: qHTS for Inhibitors of WRN Helicase: BLM Helicase Counterscreen for WRN Inhibitors (AID 720503); settings: Recombinant BLM helicase DNA unwinding, red fluorescence; series mostly up to 57.1 µM; note: potency is the fitted concentration of half-maximal effect; nearly all actives have a fitted effect of over 60% in size
# Method in brief: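 Reactions were started with 100 nM DNA substrate and 2 mM ATP (final) after compound and 1 nM BLM stood 15 min at room temperature in Tris-HCl pH 8.0 buffer with NaCl, MgCl2, DTT and Tween-20. Two red-fluorescence reads 15 min apart were normalized against DMSO and no-enzyme wells.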
# [3] = molecular target: Calcium and integrin-binding protein 1 (Homo sapiens) (UniProt Q99828); test: Primary qHTS for Identification of Calcium Integrin Binding Protein 1 (CIB1) Competitor (AID 1508620); settings: CIB1-GST / FITC-alphaIIb peptide fluorescence polarization; series mostly up to 114 µM; note: potency is the fitted concentration of half-maximal effect
# Method in brief: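 Fluorescence polarization competition: GST-tagged CIB1 (1 uM final) preincubated with compound 15 min at room temperature, then FITC-labelled alphaIIb peptide (100 nM final) added. After 15 min at room temperature, polarization read at Ex 480/Em 540.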
# [4] = Counterscreen qHTS for small molecule stabilizers of the endoplasmic reticulum resident proteome: GLuc-NoTag assay (AID 1508627); settings: Gaussia luciferase NoTag secretion counterscreen, luminescence, thapsigargin 100 nM for final 4 h; activity change, negative = inhibition: at 76.4 µM (top of the series);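 note: SH-SY5Y cells given compound then 100 nM thapsigargin to empty ER calcium; 0% = thapsigargin alone and -100% = DMSO vehicle control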
# Method in brief: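 SH-SY5Y cells stably expressing constitutively secreted GLuc without SERCaMP tag, exposed to compound for 19 hr, then to 100 nM thapsigargin for 4 hr at 37C. Medium luciferase was read by coelenterazine luminescence without lysis.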
# [5] = Confirmatory qHTS for small molecule stabilizers of the endoplasmic reticulum resident proteome: Secreted ER Calcium Modulated Protein (SERCaMP) assay (AID 1508628); settings: SERCaMP secreted luciferase ER calcium/proteostasis reporter; series mostly up to 76.3 µM; note: potency is the fitted concentration of half-maximal effect; nearly all actives have a fitted effect of over 40% in size
# Method in brief: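 SH-SY5Y cells stably expressing GLuc-SERCaMP, treated 16 h with compound (primary 1.53, 7.67, 38.3 uM; confirmation 11 concentrations, up to 76.6 uM), then 100 nM thapsigargin for 4 h. Secreted Gaussia luciferase in medium read by coelenterazine luminescence.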
# [6] = Cell Viability qHTS for small molecule stabilizers of the endoplasmic reticulum resident proteome (AID 1508629); settings: cell viability counter-screen, 100 nM thapsigargin for final 4 h;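 note: potency is the fitted concentration of half-maximal effect; compound exposure about 46 h in total before the viability read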
# [7] = Primary qHTS for small molecule stabilizers of the endoplasmic reticulum resident proteome: Secreted ER Calcium Modulated Protein (SERCaMP) assay (AID 1508630); settings: SH-SY5Y GLuc-SERCaMP (Gaussia luciferase released on ER calcium loss) secretion, thapsigargin, luminescence; activity change, negative = inhibition: at 38.4 µM (top of the series) unless noted; note: potency is the fitted concentration of half-maximal effect
# Method in brief: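 GLuc-SERCaMP-expressing SH-SY5Y cells, pretreated 16 h with compound, are challenged with thapsigargin to empty ER calcium stores; after 4 h, coelenterazine is added directly to the medium and luminescence is imaged.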
# [8] = qHTS for Inhibitors of Ubiquitin-specific Protease USP2a Using CHOP2 as the Reporter: K633 Counterscreen (AID 652168); settings: No-enzyme DiUb K48 IQF substrate fluorescence interference, kinetic; series mostly up to 57.5 µM; note: % of control where 0% means no effect
# Method in brief: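 Cell-free interference counterscreen without USP2a: compounds pinned into enzyme-free buffer (20 mM Tris pH 8, 2 mM beta-mercaptoethanol, 0.05% Chaps), then DiUb K48-4IQF substrate added (100 nM stock); fluorescence read kinetically, Ex 525/Em 598.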
# [9] = qHTS for Inhibitors of Ubiquitin-specific Protease USP2a Using CHOP2 as the Reporter: Cytotox Assay (AID 652170); settings: HCT116 viability, CellTiter-Glo luminescence, 72 h; series mostly up to 46.1 µM; note: potency is the fitted concentration of half-maximal effect; nearly all actives have a fitted effect of over 70% in size
# Method in brief: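 HCT116 human colon cancer cells, 600 per well in DMEM with 10% FBS, exposed to compounds for 72 hr at 37 deg C. ATP measured by CellTiter-Glo luminescence, normalized to DMSO cells and no-cell background.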
# [10] = molecular target: Ubiquitin carboxyl-terminal hydrolase 2 (Homo sapiens) (UniProt O75604); test: qHTS for Inhibitors of Ubiquitin-specific Protease USP2a Using CHOP2 as the Reporter: K484 Substrate (AID 652173); settings: USP2 cleavage of DiUb K48 IQF substrate, fluorescence; series mostly up to 57.5 µM;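 note: cleavage of internally quenched K48 di-ubiquitin substrate measured as rising fluorescence over time; potency is the fitted concentration of half-maximal effect; nearly all actives have a fitted effect of over 70% in size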
# Method in brief: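 USP2 (dispensed at 5 nM) was pinned with compounds, then DiUb K48 internally quenched fluorescent substrate (dispensed at 100 nM) was added. The buffer was 20 mM Tris pH 8, 2 mM beta-mercaptoethanol and 0.05% CHAPS. Cleavage was read kinetically as rising fluorescence, Ex 525/Em 598.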
# [11] = molecular target: Rap guanine nucleotide exchange factor 3 (Homo sapiens) (UniProt O95398); test: Confirmatory qHTS for antagonist of cAMP-regulated guanine nucleotide exchange factor 3 (EPAC1) (AID 1645880); settings: EPAC1 Rap1B-BODIPY-GDP exchange, fluorescence; activity, negative = inhibition: at 115 µM (top of the series); note: potency is the fitted concentration of half-maximal effect; nearly all actives have a fitted effect of over 55% in size
# Method in brief: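 Nucleotide exchange uses 100 nM EPAC1, 250 nM RAP1B-BODIPY-GDP and 50 uM GDP, with compounds in a concentration-titration series. After 5 min at room temperature, fluorescence (480 nm ex/540 nm em) is read every 5 min for 30 min. Data are normalized to control ATA and DMSO.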
# [12] = molecular target: Rap guanine nucleotide exchange factor 4 (Homo sapiens) (UniProt Q8WZA2); test: Confirmatory qHTS for antagonist of cAMP-regulated guanine nucleotide exchange factor 4 (EPAC2) (AID 1645885); settings: EPAC2 Rap1B-BODIPY-GDP exchange fluorescence, biochemical; activity change, negative = inhibition: at 12.7 µM (top of the series) unless noted; series mostly up to 114 µM; note: potency is the fitted concentration of half-maximal effect; nearly all actives have a fitted effect of over 25% in size
# [13] = molecular target: Rap guanine nucleotide exchange factor 3 (Homo sapiens) (UniProt O95398); test: Counterscreen qHTS for agonist of cAMP-regulated guanine nucleotide exchange factor 3 (EPAC1) (AID 1645889); settings: EPAC1 Rap1B-BODIPY-GDP exchange, fluorescence; activation: at 154 µM (top of the series) unless noted; note: % of control where 0% means no effect; nearly all actives have a fitted effect of over 40% in size
# Method in brief: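 Rap1B–BODIPY-GDP (250 nM) with 50 uM GDP; compounds pin-transferred to 9.74 nM–152 uM final (activator) or from 7.32 nM upwards (inhibitor). Fluorescence Ex/Em 480/540 nm read at 5 and 30 min, then after adding cAMP or buffer, at room temperature.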
# Tags give direction and shape of the fitted curve.
# Sequence of UniProt Q99828 (Q99828 whole entry, looked up): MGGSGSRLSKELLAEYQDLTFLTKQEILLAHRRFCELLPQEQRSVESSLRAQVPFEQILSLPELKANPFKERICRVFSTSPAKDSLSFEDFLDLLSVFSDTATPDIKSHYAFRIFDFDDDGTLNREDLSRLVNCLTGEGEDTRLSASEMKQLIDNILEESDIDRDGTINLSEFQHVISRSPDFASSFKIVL
# Sequence of UniProt O95398 (O95398 whole entry, looked up): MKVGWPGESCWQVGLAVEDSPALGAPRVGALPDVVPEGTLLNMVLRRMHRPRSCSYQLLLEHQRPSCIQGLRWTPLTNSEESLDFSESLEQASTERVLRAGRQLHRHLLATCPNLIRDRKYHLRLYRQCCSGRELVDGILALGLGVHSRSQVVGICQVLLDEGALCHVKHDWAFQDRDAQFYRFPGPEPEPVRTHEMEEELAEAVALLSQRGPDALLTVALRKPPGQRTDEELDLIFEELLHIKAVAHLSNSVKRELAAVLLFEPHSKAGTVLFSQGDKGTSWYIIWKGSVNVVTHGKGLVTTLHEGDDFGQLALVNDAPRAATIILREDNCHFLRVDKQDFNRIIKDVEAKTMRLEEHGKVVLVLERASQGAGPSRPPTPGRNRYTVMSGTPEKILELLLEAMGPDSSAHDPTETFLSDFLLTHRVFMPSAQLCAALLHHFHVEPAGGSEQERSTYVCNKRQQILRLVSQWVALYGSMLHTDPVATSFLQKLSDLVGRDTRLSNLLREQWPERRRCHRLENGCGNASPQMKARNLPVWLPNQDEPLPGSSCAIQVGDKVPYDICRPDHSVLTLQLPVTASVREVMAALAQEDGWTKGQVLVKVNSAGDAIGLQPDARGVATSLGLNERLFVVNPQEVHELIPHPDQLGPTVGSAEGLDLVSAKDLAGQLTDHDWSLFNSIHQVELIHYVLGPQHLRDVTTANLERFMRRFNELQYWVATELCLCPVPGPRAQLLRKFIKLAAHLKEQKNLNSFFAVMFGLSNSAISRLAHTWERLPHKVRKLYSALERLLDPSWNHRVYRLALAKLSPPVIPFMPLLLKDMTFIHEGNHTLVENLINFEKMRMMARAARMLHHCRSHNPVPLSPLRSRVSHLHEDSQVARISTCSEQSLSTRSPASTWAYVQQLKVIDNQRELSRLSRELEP
# Sequence of UniProt Q9Y253 (Q9Y253 whole entry, looked up): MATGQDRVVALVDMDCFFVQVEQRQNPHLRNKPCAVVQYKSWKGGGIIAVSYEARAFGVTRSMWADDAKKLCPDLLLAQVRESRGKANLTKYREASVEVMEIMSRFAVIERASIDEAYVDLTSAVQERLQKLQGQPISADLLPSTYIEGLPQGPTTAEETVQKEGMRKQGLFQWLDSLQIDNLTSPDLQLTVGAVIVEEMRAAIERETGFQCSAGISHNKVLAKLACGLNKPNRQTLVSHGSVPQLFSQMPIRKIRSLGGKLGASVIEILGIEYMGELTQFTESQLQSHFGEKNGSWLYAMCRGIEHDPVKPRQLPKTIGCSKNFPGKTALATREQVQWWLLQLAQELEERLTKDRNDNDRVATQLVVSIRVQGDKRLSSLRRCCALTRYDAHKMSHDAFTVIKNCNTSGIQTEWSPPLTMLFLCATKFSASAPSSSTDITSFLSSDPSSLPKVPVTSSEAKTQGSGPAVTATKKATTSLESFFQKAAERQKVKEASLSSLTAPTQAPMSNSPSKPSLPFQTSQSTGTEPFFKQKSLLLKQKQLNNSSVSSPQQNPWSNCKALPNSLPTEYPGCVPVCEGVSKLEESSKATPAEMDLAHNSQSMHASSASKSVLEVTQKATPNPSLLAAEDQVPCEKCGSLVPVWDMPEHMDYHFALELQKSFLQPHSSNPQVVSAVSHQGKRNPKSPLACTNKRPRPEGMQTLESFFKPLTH
# Sequence of UniProt P54132 (P54132 whole entry, looked up): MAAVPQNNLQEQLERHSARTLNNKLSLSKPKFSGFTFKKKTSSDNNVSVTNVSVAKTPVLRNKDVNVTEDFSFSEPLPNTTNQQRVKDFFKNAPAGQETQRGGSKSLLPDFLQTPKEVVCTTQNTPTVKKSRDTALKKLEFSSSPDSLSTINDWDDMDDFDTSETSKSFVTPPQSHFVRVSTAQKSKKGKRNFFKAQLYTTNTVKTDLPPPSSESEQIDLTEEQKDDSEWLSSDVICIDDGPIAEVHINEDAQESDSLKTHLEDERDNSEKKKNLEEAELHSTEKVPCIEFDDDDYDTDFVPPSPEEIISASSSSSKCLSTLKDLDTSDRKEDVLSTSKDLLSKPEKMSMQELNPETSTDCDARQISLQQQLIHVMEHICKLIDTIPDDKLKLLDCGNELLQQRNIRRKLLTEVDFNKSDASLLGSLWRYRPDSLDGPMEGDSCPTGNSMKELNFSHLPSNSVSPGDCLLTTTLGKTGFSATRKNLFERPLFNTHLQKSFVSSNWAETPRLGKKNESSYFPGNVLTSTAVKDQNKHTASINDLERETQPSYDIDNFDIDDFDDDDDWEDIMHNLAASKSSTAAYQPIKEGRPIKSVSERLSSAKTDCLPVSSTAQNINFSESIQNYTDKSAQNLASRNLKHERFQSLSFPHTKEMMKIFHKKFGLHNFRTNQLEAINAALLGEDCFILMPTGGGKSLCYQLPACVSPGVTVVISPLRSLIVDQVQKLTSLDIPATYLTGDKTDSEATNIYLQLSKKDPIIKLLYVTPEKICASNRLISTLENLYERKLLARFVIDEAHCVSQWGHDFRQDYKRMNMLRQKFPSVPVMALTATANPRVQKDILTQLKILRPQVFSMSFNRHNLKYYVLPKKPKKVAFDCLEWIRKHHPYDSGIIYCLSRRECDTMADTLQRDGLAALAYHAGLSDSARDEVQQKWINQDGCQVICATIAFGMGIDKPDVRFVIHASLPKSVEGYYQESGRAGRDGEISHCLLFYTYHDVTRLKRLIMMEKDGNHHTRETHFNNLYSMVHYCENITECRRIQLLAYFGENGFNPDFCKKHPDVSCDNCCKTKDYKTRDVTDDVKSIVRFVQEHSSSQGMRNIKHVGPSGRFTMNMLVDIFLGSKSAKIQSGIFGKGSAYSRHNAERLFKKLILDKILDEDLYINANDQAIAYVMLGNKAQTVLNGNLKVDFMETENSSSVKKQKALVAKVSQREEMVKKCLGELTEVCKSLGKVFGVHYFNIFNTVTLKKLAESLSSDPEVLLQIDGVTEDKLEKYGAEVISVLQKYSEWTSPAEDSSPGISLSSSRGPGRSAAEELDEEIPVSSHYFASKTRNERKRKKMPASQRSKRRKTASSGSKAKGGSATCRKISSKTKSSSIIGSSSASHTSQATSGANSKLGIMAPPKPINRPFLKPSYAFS
# Sequence of UniProt O75604 (O75604 whole entry, looked up): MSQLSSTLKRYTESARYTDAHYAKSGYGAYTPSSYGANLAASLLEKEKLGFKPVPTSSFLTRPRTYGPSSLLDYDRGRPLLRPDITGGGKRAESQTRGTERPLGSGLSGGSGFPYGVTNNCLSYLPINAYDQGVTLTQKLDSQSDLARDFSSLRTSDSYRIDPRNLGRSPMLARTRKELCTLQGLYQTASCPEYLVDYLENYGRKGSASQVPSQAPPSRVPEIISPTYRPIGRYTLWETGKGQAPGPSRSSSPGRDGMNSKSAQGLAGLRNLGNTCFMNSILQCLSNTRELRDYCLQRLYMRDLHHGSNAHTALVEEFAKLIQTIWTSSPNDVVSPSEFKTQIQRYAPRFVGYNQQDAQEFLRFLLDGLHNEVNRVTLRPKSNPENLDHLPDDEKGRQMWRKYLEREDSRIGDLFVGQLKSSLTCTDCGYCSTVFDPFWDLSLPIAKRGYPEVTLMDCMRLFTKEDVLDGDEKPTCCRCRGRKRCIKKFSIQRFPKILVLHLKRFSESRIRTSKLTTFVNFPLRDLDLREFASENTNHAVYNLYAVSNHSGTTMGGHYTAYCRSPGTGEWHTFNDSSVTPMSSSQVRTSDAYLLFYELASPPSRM
# Sequence of UniProt Q8WZA2 (Q8WZA2 whole entry, looked up): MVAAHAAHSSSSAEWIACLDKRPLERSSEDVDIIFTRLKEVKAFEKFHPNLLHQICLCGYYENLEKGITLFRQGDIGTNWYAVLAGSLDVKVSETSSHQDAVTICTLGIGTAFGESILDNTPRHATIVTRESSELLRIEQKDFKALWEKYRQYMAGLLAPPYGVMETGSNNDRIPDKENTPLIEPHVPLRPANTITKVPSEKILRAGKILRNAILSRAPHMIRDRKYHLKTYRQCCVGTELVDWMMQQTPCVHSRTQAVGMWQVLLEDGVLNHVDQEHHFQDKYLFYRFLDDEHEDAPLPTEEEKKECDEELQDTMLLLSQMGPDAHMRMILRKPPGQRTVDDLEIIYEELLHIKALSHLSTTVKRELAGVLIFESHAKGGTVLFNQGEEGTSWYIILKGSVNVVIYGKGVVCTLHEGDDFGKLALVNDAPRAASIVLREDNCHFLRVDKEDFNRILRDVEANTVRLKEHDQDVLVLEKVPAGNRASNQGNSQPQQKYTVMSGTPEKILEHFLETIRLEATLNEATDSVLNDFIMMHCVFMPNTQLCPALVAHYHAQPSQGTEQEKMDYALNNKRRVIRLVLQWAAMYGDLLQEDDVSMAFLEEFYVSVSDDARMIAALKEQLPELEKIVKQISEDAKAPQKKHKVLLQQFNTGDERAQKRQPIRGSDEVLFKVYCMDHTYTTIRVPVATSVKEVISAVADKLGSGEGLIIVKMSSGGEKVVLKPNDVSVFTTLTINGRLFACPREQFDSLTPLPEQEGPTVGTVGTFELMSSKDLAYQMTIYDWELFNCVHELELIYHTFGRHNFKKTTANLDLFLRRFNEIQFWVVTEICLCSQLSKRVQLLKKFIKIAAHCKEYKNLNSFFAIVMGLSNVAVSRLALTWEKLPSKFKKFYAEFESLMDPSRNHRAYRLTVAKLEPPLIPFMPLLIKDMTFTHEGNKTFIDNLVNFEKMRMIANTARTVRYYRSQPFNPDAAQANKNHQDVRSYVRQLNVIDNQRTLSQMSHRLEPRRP
compound,measurement,setting,value
O=C(O)C1NCc2[nH]cnc2C1c1ccccc1 (stereo not given),Potency,[1],"inconclusive [inhibitor, partial curve, poor fit]"
same,Potency,[2],"inconclusive [inhibitor, partial curve]"
same,Potency,[3],"inconclusive [inhibitor, partial curve, poor fit]"
COc1ncc2nc(CCc3ccccc3)c(=O)n(C3CC3)c2n1,Potency,[4],inactive
same,Potency,[5],"inconclusive [inhibitor, partial curve, poor fit]"
same,Potency,[6],"inconclusive [rising, full curve]"
same,Potency,[7],"inconclusive [inhibitor, partial curve, poor fit]"
Cc1ccc(S(=O)(=O)Nc2cc([N+](=O)[O-])ccc2C(=O)Nc2nc(-c3ccccc3)cs2)cc1,Potency,[8],inactive
same,Potency,[9],active: 5.26 µM
same,Potency,[3],"inconclusive [inhibitor, partial curve, poor fit]"
Cc1ccc(S(=O)(=O)Nc2cnccc2C(=O)Nc2nc(C(=O)O)cs2)cc1,Potency,[10],"inconclusive [inhibitor, partial curve]"
same,Potency,[3],"inconclusive [inhibitor, partial curve, poor fit]"
O=C(Nc1nc(-c2ccccc2)cs1)c1ccncc1NS(=O)(=O)c1ccccc1,Potency,[8],inactive
same,Potency,[9],"inconclusive [cytotoxic, partial curve, poor fit]"
same,Potency,[3],"inconclusive [inhibitor, partial curve]"
Cc1cc(NS(=O)(=O)c2ccc(Nc3nc(-c4ccc(C)c(C)c4)cs3)cc2)no1,Potency,[8],inactive
same,Potency,[3],"inconclusive [inhibitor, partial curve, poor fit]"
same,Potency,[11],active: 75.7 µM
same,Potency,[12],"inconclusive [inhibitor, partial curve, poor fit]"
same,activation,[13],inconclusive: 48% [activator]
